{
  "source": "paper PMC4336329",
  "about": "(PLoS ONE, 2015)",
  "note": "In all, about 310,000 compounds went through this assay and about 2,200 (0.71%) showed an effect of 50% or more. Effects have a minus sign here. The list shows a part of the results.",
  "data": [
    {"molecular_target": "human ether-à-go-go-related gene (hERG) potassium channel (human, UniProt Q12809)", "sequence (Q12809 whole entry, looked up)": "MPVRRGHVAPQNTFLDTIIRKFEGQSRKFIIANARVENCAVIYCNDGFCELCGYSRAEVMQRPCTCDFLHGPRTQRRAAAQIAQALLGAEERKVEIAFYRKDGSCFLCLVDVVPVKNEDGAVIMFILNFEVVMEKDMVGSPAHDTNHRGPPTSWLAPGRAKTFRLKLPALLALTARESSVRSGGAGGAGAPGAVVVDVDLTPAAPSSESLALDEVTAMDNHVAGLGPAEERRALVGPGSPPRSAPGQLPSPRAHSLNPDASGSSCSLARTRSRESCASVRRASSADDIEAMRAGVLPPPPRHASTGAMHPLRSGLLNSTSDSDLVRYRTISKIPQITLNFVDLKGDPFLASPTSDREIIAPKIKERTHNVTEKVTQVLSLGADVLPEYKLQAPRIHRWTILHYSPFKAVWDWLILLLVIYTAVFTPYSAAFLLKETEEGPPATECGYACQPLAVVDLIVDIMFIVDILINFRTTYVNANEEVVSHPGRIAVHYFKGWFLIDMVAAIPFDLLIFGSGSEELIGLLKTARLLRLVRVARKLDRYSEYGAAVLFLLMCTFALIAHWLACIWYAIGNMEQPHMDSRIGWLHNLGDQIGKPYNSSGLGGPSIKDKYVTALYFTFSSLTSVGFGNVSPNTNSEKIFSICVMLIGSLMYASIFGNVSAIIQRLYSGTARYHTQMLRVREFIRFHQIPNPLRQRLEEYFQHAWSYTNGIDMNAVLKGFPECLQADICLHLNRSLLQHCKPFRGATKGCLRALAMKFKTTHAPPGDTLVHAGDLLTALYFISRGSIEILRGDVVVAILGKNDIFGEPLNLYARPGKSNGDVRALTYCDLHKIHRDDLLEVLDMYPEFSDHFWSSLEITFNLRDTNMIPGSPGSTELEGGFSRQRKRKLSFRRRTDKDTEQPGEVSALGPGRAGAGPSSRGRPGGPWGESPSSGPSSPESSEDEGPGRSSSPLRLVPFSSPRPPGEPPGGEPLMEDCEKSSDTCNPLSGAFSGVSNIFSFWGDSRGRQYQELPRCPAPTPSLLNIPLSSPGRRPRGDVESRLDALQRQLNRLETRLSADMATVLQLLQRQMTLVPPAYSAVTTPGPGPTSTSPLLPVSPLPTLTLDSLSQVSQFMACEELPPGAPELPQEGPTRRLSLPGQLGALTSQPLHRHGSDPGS", "experiment": "primary screen, population patch clamp on CHO cells stably expressing hERG", "units": {"hERG current change (%, negative = inhibition) at 1uM": "%"}, "values": [
      {"molecule": "O=c1c(-c2ccccc2)c(O)cc(-c2ccncc2)n1-c1ccc(Cl)cc1", "hERG current change (%, negative = inhibition) at 1uM": 11.7},
      {"molecule": "C=CCn1c(SCC(=O)c2ccc(O)c(O)c2)nnc1-c1cccc(Cl)c1", "hERG current change (%, negative = inhibition) at 1uM": 11.9},
      {"molecule": "CCCCC1=CC2=CC(=O)C(C)(OC(=O)CC)C(=O)C2=CN1C(CO)CO", "note": "(stereo not shown)", "hERG current change (%, negative = inhibition) at 1uM": 11},
      {"molecule": "CCN(CC)NC(=O)Nc1ccccc1", "hERG current change (%, negative = inhibition) at 1uM": 17.5},
      {"molecule": "c1ccc(OCCSc2ncnc3nc[nH]c23)cc1", "hERG current change (%, negative = inhibition) at 1uM": 2.64},
      {"molecule": "O.O=C(CCc1ccc(O)cc1)c1c(O)cc(O)cc1O[C@@H]1O[C@H](CO)[C@@H](O)[C@H](O)[C@H]1O", "hERG current change (%, negative = inhibition) at 1uM": 5.59},
      {"molecule": "Cc1nn(C)cc1C1C(C#N)=C(N)N(c2ccc(F)c([N+](=O)[O-])c2)C2=C1C(=O)CCC2", "note": "(stereo not shown)", "hERG current change (%, negative = inhibition) at 1uM": 12.3},
      {"molecule": "COc1ccccc1C(=O)Nc1ccc(C(=O)Nc2ccccc2C(=O)O)cc1", "hERG current change (%, negative = inhibition) at 1uM": 15.2},
      {"molecule": "O=C(NCCc1ccc(Cl)cc1)c1cc(=O)[nH]c2ccccc12", "hERG current change (%, negative = inhibition) at 1uM": 10.9},
      {"molecule": "O=C(O)c1ccc(Nc2ccc([N+](=O)[O-])c3nonc23)cc1", "hERG current change (%, negative = inhibition) at 1uM": 15.5},
      {"molecule": "CC1(C)CC(=O)C(C=Nc2ccc(O)cc2)=C(O)C1", "hERG current change (%, negative = inhibition) at 1uM": 8.57},
      {"molecule": "CC1(C)S[C@@H]2[C@H](NC(=O)Cc3ccccc3)C(=O)N2[C@H]1C(=O)[O-].[K+]", "hERG current change (%, negative = inhibition) at 1uM": 9.11},
      {"molecule": "NC(=O)CSc1nnnn1-c1ccc(OC(F)(F)F)cc1", "hERG current change (%, negative = inhibition) at 1uM": -8.07},
      {"molecule": "CCN(CCO)Cc1cc(=O)oc2c(C)c(C)ccc12", "hERG current change (%, negative = inhibition) at 1uM": 7.31},
      {"molecule": "CSCCC(NS(=O)(=O)c1ccccc1F)C(=O)Nc1cccc(C)n1", "note": "(stereo not shown)", "hERG current change (%, negative = inhibition) at 1uM": 8.96},
      {"molecule": "CCCCN(C(=O)c1cc(S(=O)(=O)N2CCCCCC2)ccc1OC)c1ccccc1", "hERG current change (%, negative = inhibition) at 1uM": -1.19},
      {"molecule": "CC1(C)CC(=O)c2sc(NC(=O)c3ccccc3)nc2C1", "hERG current change (%, negative = inhibition) at 1uM": 16.4},
      {"molecule": "CN(CC(O)COc1ccc2ccccc2c1)C1CCCCC1.Cl", "note": "(stereo not shown)", "hERG current change (%, negative = inhibition) at 1uM": -5.03},
      {"molecule": "O=C(O)CSCC(=O)Nc1ccc(Cl)cc1C(F)(F)F", "hERG current change (%, negative = inhibition) at 1uM": 4.34},
      {"molecule": "COc1ccc(CC(=O)OCC(=O)NCCc2ccccc2)cc1OC", "hERG current change (%, negative = inhibition) at 1uM": 7.46},
      {"molecule": "CCCn1nnc(NC(=O)c2cccc(OCC(C)C)c2)n1", "hERG current change (%, negative = inhibition) at 1uM": 8.53},
      {"molecule": "Cc1nn(CC(=O)Nc2cc(S(=O)(=O)N(C)C)ccc2Cl)c(C)c1[N+](=O)[O-]", "hERG current change (%, negative = inhibition) at 1uM": 3.62},
      {"molecule": "Cc1ccc(NC(=O)c2ccc(S(=O)(=O)N3CCOCC3)cc2)cc1", "hERG current change (%, negative = inhibition) at 1uM": 15.3},
      {"molecule": "CCc1ccc(NC(=O)CCC(=O)Nc2nnc(C(C)C)s2)cc1", "hERG current change (%, negative = inhibition) at 1uM": 15.8},
      {"molecule": "O=C1/C(=C/c2cccc(Cl)c2)CSc2sccc21", "hERG current change (%, negative = inhibition) at 1uM": 16},
      {"molecule": "NS(=O)(=O)c1ccc(CNC(=O)c2cc(=O)[nH]c3ccccc23)cc1", "hERG current change (%, negative = inhibition) at 1uM": 11.5},
      {"molecule": "CCOC(=O)N1CCN(c2c(NCCCN(C)c3ccccc3)c(=O)c2=O)CC1", "hERG current change (%, negative = inhibition) at 1uM": 9.53},
      {"molecule": "COC(=O)c1ccc2c(c1)C(C)(C)C(/C=C/c1ccccc1O)=[N+]2C.[I-]", "hERG current change (%, negative = inhibition) at 1uM": -7.78},
      {"molecule": "COc1cc(SC)ccc1C(=O)N1CCCCCC1", "hERG current change (%, negative = inhibition) at 1uM": 15.5},
      {"molecule": "O=C(c1ccco1)N1CCN(Cc2cc(=O)c(OCc3c(F)cccc3Cl)co2)CC1", "hERG current change (%, negative = inhibition) at 1uM": 7.1},
      {"molecule": "CCCCCC(=O)N(O)C1CC(=O)N(c2ccccc2)C1=O", "note": "(stereo not shown)", "hERG current change (%, negative = inhibition) at 1uM": 4.32},
      {"molecule": "Cc1cccc(NC(=O)CC2C(=O)NCCN2C(=S)Nc2ccccc2)c1", "note": "(stereo not shown)", "hERG current change (%, negative = inhibition) at 1uM": 9.08},
      {"molecule": "Cc1cccc(Cn2cnc3c(nnn3Cc3ccc(F)cc3)c2=O)c1", "hERG current change (%, negative = inhibition) at 1uM": -0.799},
      {"molecule": "CN(Cc1cn(-c2ccccc2)nc1-c1cc2ccccc2o1)C(=O)CCC(=O)O", "hERG current change (%, negative = inhibition) at 1uM": 8.53},
      {"molecule": "CCCC1(C(=O)OC)NC(c2ccco2)C2C(=O)N(C)C(=O)C21", "note": "(stereo not shown)", "hERG current change (%, negative = inhibition) at 1uM": 16.1},
      {"molecule": "CC1=NNC(=O)C1CC(=O)N/N=C/c1ccc(C)o1", "note": "(stereo not shown)", "hERG current change (%, negative = inhibition) at 1uM": 9.85},
      {"molecule": "COc1ccc(CCN=C(N)NS(=O)(=O)c2ccc(C)c(C)c2)cc1OC", "hERG current change (%, negative = inhibition) at 1uM": 11.4},
      {"molecule": "Nc1c(C(=O)OCC(=O)Nc2ccc(Cl)cc2[N+](=O)[O-])[nH]c(=O)[nH]c1=O", "hERG current change (%, negative = inhibition) at 1uM": 1.42},
      {"molecule": "COC(=O)C(C)Sc1nc2c(c(=O)[nH]c(=O)n2C)n1CCCc1ccccc1", "note": "(stereo not shown)", "hERG current change (%, negative = inhibition) at 1uM": -70.1},
      {"molecule": "C[N+](C)(C)c1ccccc1.[I-]", "hERG current change (%, negative = inhibition) at 1uM": 18.4},
      {"molecule": "O=C(Nc1ccccc1Oc1ccsc1C(=O)O)c1ccccc1", "hERG current change (%, negative = inhibition) at 1uM": 12.9},
      {"molecule": "Cc1cc(C)cc(NC(=O)N2CCCC2C(=O)Nc2ccc(-n3cnnn3)c(C)c2)c1", "note": "(stereo not shown)", "hERG current change (%, negative = inhibition) at 1uM": 8.19},
      {"molecule": "O=C(COc1ccc(S(=O)(=O)N2CCOCC2)cc1)Nc1ccc(Cl)c(C(F)(F)F)c1", "hERG current change (%, negative = inhibition) at 1uM": 5.74},
      {"molecule": "Cc1ccc(-c2nnn(CC(=O)N(c3ccccc3)C(C(=O)NCC3CCCO3)c3cccs3)n2)o1", "note": "(stereo not shown)", "hERG current change (%, negative = inhibition) at 1uM": 19.7},
      {"molecule": "COc1ccc(NC(=O)CN(c2ccc(OC)c(Cl)c2)S(=O)(=O)c2ccccc2)cc1", "hERG current change (%, negative = inhibition) at 1uM": 5.41},
      {"molecule": "O=C(NCc1ccccc1Cl)C1CCCN(c2ncnc3c2nc2n3CCCCC2)C1", "note": "(stereo not shown)", "hERG current change (%, negative = inhibition) at 1uM": -1.05},
      {"molecule": "CCN(CCNC(=O)c1ccc(CSc2nc3ccncc3[nH]2)cc1)c1ccccc1", "hERG current change (%, negative = inhibition) at 1uM": 14.2},
      {"molecule": "COc1cccc(-n2nnnc2SCC(=O)Nc2cccc(NC(C)=O)c2)c1", "hERG current change (%, negative = inhibition) at 1uM": 7.35},
      {"molecule": "Cc1ccc(OC(C)C)c(CN(CCO)CCO)c1.Cl", "hERG current change (%, negative = inhibition) at 1uM": 14.2},
      {"molecule": "CC1(CCc2ccccc2)NC(=O)N(CC(=O)Nc2ccc(S(N)(=O)=O)cc2)C1=O", "note": "(stereo not shown)", "hERG current change (%, negative = inhibition) at 1uM": 0.478},
      {"molecule": "COc1ccc(C(=O)N/C(=C\\c2cc(OC)c(OC)cc2[N+](=O)[O-])C(=O)NCC(=O)O)cc1", "hERG current change (%, negative = inhibition) at 1uM": 19.6},
      {"molecule": "O=C(NC1CCCCCC1)c1ccc(OCC2CCCO2)cc1", "note": "(stereo not shown)", "hERG current change (%, negative = inhibition) at 1uM": 11.2},
      {"molecule": "Cc1ccc(-c2cc(=O)c3ccccc3[nH]2)cc1", "hERG current change (%, negative = inhibition) at 1uM": 13.4},
      {"molecule": "COc1ccc(NC(=O)Cn2nnc(C(N)=O)c2N)c(OC)c1", "hERG current change (%, negative = inhibition) at 1uM": -0.969},
      {"molecule": "Cc1c(NC(=O)Nc2ccccc2Cl)c(=O)n(-c2ccccc2)n1C", "hERG current change (%, negative = inhibition) at 1uM": 7.87}
    ]}
  ]
}
